In article PMC9950447, “Targeting USP10 induces degradation of oncogenic ANLN in esophageal squamous cell carcinoma” (Cell Death and Differentiation, 2022):
Results are given in words; binding and its absence hold for the method and conditions named. For some of these results: Binding seen in cells or lysates may run through a third protein. Some results given as binding are weak or reduced against the parent protein; the word gives no strength. For some of these results: Tags and fused reporters may be left off the sequences shown. Values belong to the molecule of their own block, whether it stands above or below them.

Sequences of proteins named here, by UniProt entry; tags and fusion partners are left off. A change or cut given only in a name is not applied to a line headed by its entry. A line that says so, or that is headed by a name, gives the form on record, which may keep a tag or linker. Residues count along the entry.
UniProt Q9UM11: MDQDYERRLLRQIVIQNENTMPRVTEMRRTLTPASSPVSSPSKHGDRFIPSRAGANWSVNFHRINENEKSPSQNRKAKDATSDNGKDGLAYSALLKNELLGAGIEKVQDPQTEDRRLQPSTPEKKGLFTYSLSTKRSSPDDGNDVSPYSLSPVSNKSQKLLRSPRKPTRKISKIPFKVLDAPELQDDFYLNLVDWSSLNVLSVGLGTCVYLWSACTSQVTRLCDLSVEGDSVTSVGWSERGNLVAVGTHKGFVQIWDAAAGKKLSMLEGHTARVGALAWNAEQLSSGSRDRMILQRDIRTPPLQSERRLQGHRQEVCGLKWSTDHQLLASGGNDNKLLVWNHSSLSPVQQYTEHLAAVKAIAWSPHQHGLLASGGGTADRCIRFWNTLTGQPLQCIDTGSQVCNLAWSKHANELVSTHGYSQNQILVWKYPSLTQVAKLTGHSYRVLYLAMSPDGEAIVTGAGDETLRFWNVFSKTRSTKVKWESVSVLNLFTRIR
USP10 amino acids 210-802, expressed in HEK293T cells (Q14694, residues 206-798): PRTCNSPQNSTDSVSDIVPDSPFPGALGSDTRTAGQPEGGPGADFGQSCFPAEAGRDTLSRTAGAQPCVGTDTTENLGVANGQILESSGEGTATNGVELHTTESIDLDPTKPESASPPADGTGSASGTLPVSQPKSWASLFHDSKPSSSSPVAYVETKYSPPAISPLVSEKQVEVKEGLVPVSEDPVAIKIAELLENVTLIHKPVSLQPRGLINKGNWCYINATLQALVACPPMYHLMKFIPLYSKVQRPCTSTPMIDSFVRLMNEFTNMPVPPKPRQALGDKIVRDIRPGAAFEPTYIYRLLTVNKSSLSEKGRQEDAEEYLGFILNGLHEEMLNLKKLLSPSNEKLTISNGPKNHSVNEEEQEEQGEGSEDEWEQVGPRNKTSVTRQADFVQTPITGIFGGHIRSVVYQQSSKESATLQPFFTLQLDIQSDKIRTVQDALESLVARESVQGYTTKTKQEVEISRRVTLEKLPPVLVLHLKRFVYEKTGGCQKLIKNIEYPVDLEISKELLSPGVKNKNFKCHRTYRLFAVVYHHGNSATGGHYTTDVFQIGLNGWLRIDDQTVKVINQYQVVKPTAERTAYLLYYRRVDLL
USP10 amino acids 403-802, expressed in HEK293T cells (Q14694, residues 399-798): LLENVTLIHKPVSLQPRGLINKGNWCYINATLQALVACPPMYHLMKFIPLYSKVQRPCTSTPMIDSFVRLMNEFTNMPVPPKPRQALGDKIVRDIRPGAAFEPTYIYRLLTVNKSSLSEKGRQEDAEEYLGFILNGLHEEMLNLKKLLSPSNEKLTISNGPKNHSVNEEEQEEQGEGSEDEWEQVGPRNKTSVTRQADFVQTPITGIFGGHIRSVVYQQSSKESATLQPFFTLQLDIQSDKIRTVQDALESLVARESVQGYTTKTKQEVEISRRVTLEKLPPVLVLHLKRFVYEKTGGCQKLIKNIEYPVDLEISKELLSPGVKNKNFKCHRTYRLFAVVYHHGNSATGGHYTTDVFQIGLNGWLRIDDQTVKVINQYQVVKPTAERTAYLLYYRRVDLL
recombinant His-USP10 (Q14694-3, form named): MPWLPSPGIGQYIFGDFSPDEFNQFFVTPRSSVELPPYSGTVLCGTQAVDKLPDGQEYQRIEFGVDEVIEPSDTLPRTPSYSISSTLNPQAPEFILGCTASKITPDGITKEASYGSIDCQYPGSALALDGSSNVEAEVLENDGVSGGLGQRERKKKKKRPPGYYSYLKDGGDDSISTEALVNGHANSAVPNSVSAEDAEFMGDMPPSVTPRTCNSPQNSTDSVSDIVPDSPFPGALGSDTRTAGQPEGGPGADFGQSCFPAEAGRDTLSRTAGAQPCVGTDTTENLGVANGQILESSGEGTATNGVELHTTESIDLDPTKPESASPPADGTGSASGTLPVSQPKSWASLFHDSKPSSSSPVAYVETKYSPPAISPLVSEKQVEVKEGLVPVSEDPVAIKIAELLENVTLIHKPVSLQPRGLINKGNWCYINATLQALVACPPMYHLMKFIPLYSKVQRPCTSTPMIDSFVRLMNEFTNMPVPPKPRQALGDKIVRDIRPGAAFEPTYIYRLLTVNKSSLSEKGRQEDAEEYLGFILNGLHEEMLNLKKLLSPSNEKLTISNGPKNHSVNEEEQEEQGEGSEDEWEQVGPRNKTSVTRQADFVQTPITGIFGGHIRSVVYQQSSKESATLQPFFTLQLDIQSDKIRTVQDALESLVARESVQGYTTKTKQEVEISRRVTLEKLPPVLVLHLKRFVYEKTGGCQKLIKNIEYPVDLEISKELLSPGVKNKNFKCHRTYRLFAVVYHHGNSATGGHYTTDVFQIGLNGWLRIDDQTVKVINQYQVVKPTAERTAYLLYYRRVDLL

Legend:
[1] = target: T1, Anillin (ANLN), endogenous (human (endogenous in KYSE150 and KYSE30)) (UniProt Q9NQW6); assay: co-IP; endogenous proteins in KYSE150 (and KYSE30) cells; EBC buffer (50 mM Tris pH 7.5, 120 mM NaCl, 0.5% NP-40), ANLN antibody or normal mouse IgG, protein A/G magnetic beads, 4 °C; also after siRNA, MG132 (20 μM), double thymidine block and release, or F806 (10 μM)
T1 sequence: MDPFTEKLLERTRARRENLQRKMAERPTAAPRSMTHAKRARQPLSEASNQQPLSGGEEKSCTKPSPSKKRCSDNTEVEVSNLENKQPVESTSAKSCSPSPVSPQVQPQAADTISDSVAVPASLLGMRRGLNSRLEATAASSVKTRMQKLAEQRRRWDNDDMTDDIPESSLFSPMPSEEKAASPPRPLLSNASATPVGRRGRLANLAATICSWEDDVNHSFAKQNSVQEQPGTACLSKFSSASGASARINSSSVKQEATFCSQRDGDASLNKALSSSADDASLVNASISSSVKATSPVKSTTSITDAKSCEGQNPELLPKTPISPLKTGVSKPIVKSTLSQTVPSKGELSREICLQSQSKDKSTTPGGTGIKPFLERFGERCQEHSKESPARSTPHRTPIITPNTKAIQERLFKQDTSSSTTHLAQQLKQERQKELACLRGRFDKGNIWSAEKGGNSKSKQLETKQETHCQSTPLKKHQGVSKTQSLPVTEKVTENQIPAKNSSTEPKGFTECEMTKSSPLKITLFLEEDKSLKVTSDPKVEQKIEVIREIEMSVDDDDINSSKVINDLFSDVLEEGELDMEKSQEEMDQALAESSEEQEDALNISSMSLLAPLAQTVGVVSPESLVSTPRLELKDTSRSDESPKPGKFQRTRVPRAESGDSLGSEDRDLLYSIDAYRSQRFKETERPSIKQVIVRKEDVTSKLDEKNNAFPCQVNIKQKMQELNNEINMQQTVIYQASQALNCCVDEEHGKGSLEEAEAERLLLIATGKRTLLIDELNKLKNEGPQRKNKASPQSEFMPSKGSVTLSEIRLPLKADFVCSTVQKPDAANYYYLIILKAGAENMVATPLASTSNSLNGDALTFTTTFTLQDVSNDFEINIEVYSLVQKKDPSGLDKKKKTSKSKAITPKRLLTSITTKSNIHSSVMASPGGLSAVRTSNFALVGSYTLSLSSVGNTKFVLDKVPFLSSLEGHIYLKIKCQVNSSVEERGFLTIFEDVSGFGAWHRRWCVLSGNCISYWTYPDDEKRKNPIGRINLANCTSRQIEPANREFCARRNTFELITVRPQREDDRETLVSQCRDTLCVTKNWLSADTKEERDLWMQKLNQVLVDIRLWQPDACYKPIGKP

[2] = target: T2, ANLN, tagged, expressed in HEK293T cells (human) (UniProt Q9NQW6); assay: co-IP; HEK293T cells transfected with the indicated plasmids for 48 h, harvested with EBC buffer, immunoprecipitation with HA or Flag magnetic beads, western blot
T2 sequence: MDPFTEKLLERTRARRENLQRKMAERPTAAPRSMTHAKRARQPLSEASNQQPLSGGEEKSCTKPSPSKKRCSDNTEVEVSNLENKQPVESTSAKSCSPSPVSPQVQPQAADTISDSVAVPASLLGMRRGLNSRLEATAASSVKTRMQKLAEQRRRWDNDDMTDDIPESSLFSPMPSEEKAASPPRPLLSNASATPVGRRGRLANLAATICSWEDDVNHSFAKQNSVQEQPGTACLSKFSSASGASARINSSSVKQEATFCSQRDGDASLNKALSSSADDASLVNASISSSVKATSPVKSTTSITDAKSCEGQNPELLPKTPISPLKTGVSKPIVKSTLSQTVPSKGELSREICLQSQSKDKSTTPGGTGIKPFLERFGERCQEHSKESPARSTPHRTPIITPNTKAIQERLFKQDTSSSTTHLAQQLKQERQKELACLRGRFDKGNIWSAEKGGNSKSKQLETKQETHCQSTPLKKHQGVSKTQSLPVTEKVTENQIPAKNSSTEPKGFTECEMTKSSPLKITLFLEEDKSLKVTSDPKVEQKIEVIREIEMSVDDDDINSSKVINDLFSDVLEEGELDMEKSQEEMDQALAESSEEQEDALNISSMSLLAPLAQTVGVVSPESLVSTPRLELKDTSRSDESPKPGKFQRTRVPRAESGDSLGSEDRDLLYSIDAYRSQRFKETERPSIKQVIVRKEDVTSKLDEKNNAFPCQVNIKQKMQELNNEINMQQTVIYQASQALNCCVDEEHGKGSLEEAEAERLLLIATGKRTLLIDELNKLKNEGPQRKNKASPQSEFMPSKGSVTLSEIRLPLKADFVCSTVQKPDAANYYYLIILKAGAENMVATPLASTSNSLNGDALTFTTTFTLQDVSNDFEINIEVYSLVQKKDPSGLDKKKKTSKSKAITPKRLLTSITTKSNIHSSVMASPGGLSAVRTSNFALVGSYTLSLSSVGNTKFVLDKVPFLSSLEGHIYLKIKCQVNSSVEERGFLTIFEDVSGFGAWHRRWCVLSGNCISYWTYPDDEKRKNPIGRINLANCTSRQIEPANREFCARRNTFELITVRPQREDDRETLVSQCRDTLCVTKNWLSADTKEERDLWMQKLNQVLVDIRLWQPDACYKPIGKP

[3] = target: Cdh1 (FZR1), endogenous (human (endogenous in KYSE150)) (UniProt Q9UM11); assay: co-IP; endogenous proteins in KYSE150 (and KYSE30) cells; EBC buffer (50 mM Tris pH 7.5, 120 mM NaCl, 0.5% NP-40), ANLN antibody or normal mouse IgG, protein A/G magnetic beads, 4 °C; also after siRNA, MG132 (20 μM), double thymidine block and release, or F806 (10 μM)
[4] = target: Cdh1 (FZR1), tagged, expressed in HEK293T cells (human) (UniProt Q9UM11); assay: co-IP; HEK293T cells transfected with the indicated plasmids for 48 h, harvested with EBC buffer, immunoprecipitation with HA or Flag magnetic beads, western blot
[5] = target: recombinant GST-Cdh1 (human) (UniProt Q9UM11); assay: pull-down; in vitro GST pull down: GST-tagged protein bound to GST Bind Resin in GST lysis buffer, His-tagged proteins added, 4 °C for 4 h, six washes with PBST, western blot; both purified

binding [1]: binds
Molecule: Cdh1 (FZR1), endogenous (from UniProt Q9UM11 1-496)

binding [2]: binds
Molecule: Cdh1 (FZR1), tagged, expressed in HEK293T cells (from UniProt Q9UM11 1-496)

binding [2]: binds
Molecule: USP10 amino acids 210-802, expressed in HEK293T cells (from UniProt Q14694-3 210-802) (domain or fragment)

binding [2]: no binding
Molecule: USP10 amino acids 403-802, expressed in HEK293T cells (from UniProt Q14694-3 403-802) (domain or fragment)

binding [1]: binds | binding [3]: binds
Molecule: USP10, endogenous (from UniProt Q14694-3 1-802) (enzyme)

binding [2]: binds | binding [4]: binds
Molecule: USP10, tagged, expressed in HEK293T cells (from UniProt Q14694-3 1-802) (enzyme)

binding [5]: binds
Molecule: recombinant His-USP10 (from UniProt Q14694-3 1-802) (enzyme)

binding [5]: binds
B1: recombinant His-ANLN (protein, UniProt Q9NQW6 1-1124)
chain: MDPFTEKLLERTRARRENLQRKMAERPTAAPRSMTHAKRARQPLSEASNQQPLSGGEEKSCTKPSPSKKRCSDNTEVEVSNLENKQPVESTSAKSCSPSPVSPQVQPQAADTISDSVAVPASLLGMRRGLNSRLEATAASSVKTRMQKLAEQRRRWDNDDMTDDIPESSLFSPMPSEEKAASPPRPLLSNASATPVGRRGRLANLAATICSWEDDVNHSFAKQNSVQEQPGTACLSKFSSASGASARINSSSVKQEATFCSQRDGDASLNKALSSSADDASLVNASISSSVKATSPVKSTTSITDAKSCEGQNPELLPKTPISPLKTGVSKPIVKSTLSQTVPSKGELSREICLQSQSKDKSTTPGGTGIKPFLERFGERCQEHSKESPARSTPHRTPIITPNTKAIQERLFKQDTSSSTTHLAQQLKQERQKELACLRGRFDKGNIWSAEKGGNSKSKQLETKQETHCQSTPLKKHQGVSKTQSLPVTEKVTENQIPAKNSSTEPKGFTECEMTKSSPLKITLFLEEDKSLKVTSDPKVEQKIEVIREIEMSVDDDDINSSKVINDLFSDVLEEGELDMEKSQEEMDQALAESSEEQEDALNISSMSLLAPLAQTVGVVSPESLVSTPRLELKDTSRSDESPKPGKFQRTRVPRAESGDSLGSEDRDLLYSIDAYRSQRFKETERPSIKQVIVRKEDVTSKLDEKNNAFPCQVNIKQKMQELNNEINMQQTVIYQASQALNCCVDEEHGKGSLEEAEAERLLLIATGKRTLLIDELNKLKNEGPQRKNKASPQSEFMPSKGSVTLSEIRLPLKADFVCSTVQKPDAANYYYLIILKAGAENMVATPLASTSNSLNGDALTFTTTFTLQDVSNDFEINIEVYSLVQKKDPSGLDKKKKTSKSKAITPKRLLTSITTKSNIHSSVMASPGGLSAVRTSNFALVGSYTLSLSSVGNTKFVLDKVPFLSSLEGHIYLKIKCQVNSSVEERGFLTIFEDVSGFGAWHRRWCVLSGNCISYWTYPDDEKRKNPIGRINLANCTSRQIEPANREFCARRNTFELITVRPQREDDRETLVSQCRDTLCVTKNWLSADTKEERDLWMQKLNQVLVDIRLWQPDACYKPIGKP
